Measured values from PubChem BioAssay AID2147 (National Center for Advancing Translational Sciences (NCATS), 2009).
Screen size: about 230,000 compounds; about 3,600 (1.6%) were called active. This list was built around the results that the source calls inconclusive (neither active nor inactive); the mix of calls is not that of the screen. Calls follow the shape of the dose curve; as a rule, active = well fitted inhibition curve with a large enough effect (not every such curve was filed as active); inconclusive = small, poorly fitted or top-dose-only effect, or another doubt; inactive = no such curve, though single readings can be large or run the other way. Potencies of inconclusive entries are doubtful fits and often do not repeat. More than one record can exist for a structure, and the calls need not agree.

target: Lysine-specific demethylase 4E (Homo sapiens) (UniProt B2RXH2); assay: qHTS Assay for Inhibitors of Human Jumonji Domain Containing 2E (JMJD2E); details: JMJD2E catalytic domain, FDH-coupled NADH fluorescence (FDH is formaldehyde dehydrogenase); series mostly up to 57.1 µM
Sequence of UniProt B2RXH2 (B2RXH2 whole entry, looked up, the tested form may be a part): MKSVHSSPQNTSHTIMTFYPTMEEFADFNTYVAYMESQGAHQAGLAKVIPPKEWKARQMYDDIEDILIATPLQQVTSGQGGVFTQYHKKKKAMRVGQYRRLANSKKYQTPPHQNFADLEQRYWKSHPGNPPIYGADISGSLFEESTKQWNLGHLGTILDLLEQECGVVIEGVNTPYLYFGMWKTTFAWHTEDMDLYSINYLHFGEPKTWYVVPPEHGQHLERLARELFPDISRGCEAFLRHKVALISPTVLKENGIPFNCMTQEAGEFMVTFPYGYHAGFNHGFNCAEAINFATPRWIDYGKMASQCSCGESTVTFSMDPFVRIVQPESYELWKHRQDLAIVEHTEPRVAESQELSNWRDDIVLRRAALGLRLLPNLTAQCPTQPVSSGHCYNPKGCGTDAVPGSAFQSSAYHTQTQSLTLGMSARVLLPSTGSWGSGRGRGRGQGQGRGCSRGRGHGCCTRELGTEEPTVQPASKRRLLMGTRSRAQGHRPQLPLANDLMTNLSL
Also: nearly all actives have a fitted effect of over 50% in size.
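For activity change, negative = inhibition in this document: 0% = wells with enzyme and -100% = buffer wells without enzyme.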
Potency is read from the fitted curve at half-maximal effect; tags tell the direction and shape of the fitted curve.

Row | Compound | Potency | activity change, negative = inhibition
1 | CCC(C)c1ccccc1NC(=O)COC(=O)CCc1cc(OC)c(OC)c(OC)c1 (centres undefined) | inactive | 
2 | CCOc1ccc(-n2cc(C(=O)Nc3cccc(OC)c3)c3cc(OC)c(OC)cc3c2=O)cc1 | inconclusive: 39.8 µM [inhibitor, single point] | 
3 | C=CCNC(=O)N1CCc2nc(CCCC)c3c(c2C1)CO[C@@H](C)C3 |  | inactive: -4.7% [at 11.4 µM]
4 | O=C(Oc1cccc2cccnc12)c1cccc(N2C(=O)C3C4CCC(C4)C3C2=O)c1 (centres undefined) | inconclusive: 28.2 µM [inhibitor, single point] | 
5 | O=C(NC1CCCCC1)C(c1cccnc1)N(C(=O)CCl)c1cccc(Cl)c1 (centres undefined) | inactive | 
6 | CSc1cccc(-n2cc(-c3ccc4c(c3)OCO4)[nH]c2=O)c1 | inconclusive: 39.8 µM [inhibitor, single point] | 
7 | O=c1cc(Cl)c(-c2ccccc2)n[nH]1 | inactive | 
8 | Cn1ncc2c(NNC(=O)c3ccc(Cl)cc3Cl)ncnc21 | inconclusive: 28.2 µM [inhibitor, single point] | 
9 | COc1cccc(-c2nc3n(n2)C(c2ccc4c(c2)OCO4)C(C(N)=O)=C(C)N3)c1 (centres undefined) | inconclusive: 35.5 µM [inhibitor, single point] | 
10 | COc1ccc(N2CC(O)=C(c3nc4ccccc4s3)C2=N)cc1 | inconclusive: 25.1 µM [inhibitor, single point] | 
11 | CCc1nc(CN2CCCC(C(=O)c3ccc4c5c(cccc35)CC4)C2)c(C)[nH]1 (centres undefined) | inconclusive: 28.2 µM [inhibitor, partial curve] | 
12 | COc1cccc(-c2nc(-c3ccc(NC(=O)c4cccnc4)cc3)no2)c1 | inconclusive: 39.8 µM [inhibitor, single point] | 
13 | Cc1ccc(SCCOCCN2CCc3ccccc3C2)cc1 | inconclusive: 39.8 µM [inhibitor, single point] | 
14 | N#Cc1c(=O)c2nc(NCc3ccccc3)ncc2n2ccccc12 | inconclusive: 25.1 µM [inhibitor, partial curve] | 
15 | N#CC1=C(N)Oc2c(ccc3cccnc23)C1c1ccncc1 (centres undefined) | inconclusive: 39.8 µM [inhibitor, single point] | 
16 | CCn1c(=O)cc(SCC(=O)N2CCC(C)CC2)c2ccccc21 | inconclusive: 39.8 µM [inhibitor, single point] | 
17 | COCCNC(=S)N/N=C/c1ccc(OCc2ccc(C(=O)OC)cc2)c(OC)c1 | inconclusive: 31.6 µM [inhibitor, partial curve] | 
18 | CC1(C)Cc2c(sc3ncn4nc(CCC(=O)O)c(=O)nc4c23)CO1 | inconclusive: 25.1 µM [inhibitor, single point] | 
19 | COc1ccc(-c2nc(Cn3c(SCc4ccc(F)cc4)nc4ccncc43)c(C)o2)cc1OC | inconclusive: 35.5 µM [inhibitor, single point] | 
20 | Cc1nc(NC2CCCCC2)c2nc(-c3ccccc3)n(C(C)CN(C)C)c2n1 (centres undefined) | inconclusive: 28.2 µM [inhibitor, partial curve] | 
21 | Cc1ccc(-c2nn(-c3ccccc3)cc2/C=N/NC(=O)c2ccc(Br)o2)cc1 | inconclusive: 35.5 µM [inhibitor, single point] | 
22 | COC(=O)CCCC1=CC2=CC(=O)C(C)(OC(=O)c3cccs3)C(=O)C2=CN1CCc1c[nH]c2ccccc12 (centres undefined) | active: 5.62 µM | inactive: -25.6% [at 11.4 µM]

Row | Compound | Potency | activity change, negative = inhibition
23 | Cc1c(-c2n[nH]c(=S)n2-c2ccc(C(F)(F)F)cc2)nnn1-c1ccccc1 | inactive | 
24 | COc1ccc(-c2cc(-c3ccco3)[nH]c(=O)c2C#N)cc1 | inconclusive: 25.1 µM [inhibitor, partial curve] | 
25 | O=C(NC(=C(Cl)Cl)S(=O)(=O)c1ccc(Cl)cc1)c1ccccc1 | inactive | 
26 | CCCc1ccc(-c2c(C)sc(NC(=O)c3ccnn3C)c2C#N)cc1 | inconclusive: 39.8 µM [inhibitor, single point] | 
27 | CCc1ccc2[nH]c(C(=O)Nc3ccc4c(c3)OCO4)cc2c1 | inconclusive: 25.1 µM [inhibitor, single point] | 
28 | Nc1ccccc1Nc1ccc([N+](=O)[O-])cc1[N+](=O)[O-] | inactive | 
29 | CCc1ccccc1N(C)S(=O)(=O)c1ccc2[nH]cc(C(=O)O)c(=O)c2c1 | inconclusive: 39.8 µM [inhibitor, single point] | 
30 | COC(=O)c1[nH]c2cc(C)ccc2c1NC(=O)CN1CCCc2ccccc21 | inactive | 
31 | CCCCc1cc2c(cn1)=C(OC(=O)CCC(=O)OC)C(C)(OC(=O)CC)C(=O)C=2 (centres undefined) |  | inactive: -0.249% [at 11.4 µM]
32 | CC1(C)NC(=O)N(CC(=O)OCC(=O)Nc2cc(S(=O)(=O)N3CCCCCC3)ccc2Cl)C1=O | inactive | 
33 | Cc1ncc(CO)c(/C=N/NC(=O)c2ccc(Br)cc2)c1O | inconclusive: 35.5 µM [inhibitor, single point] | 
34 | Cc1cccc(NC(=O)C2SC(=Nc3c(C)cccc3C)C(C(=O)N3CCOCC3)=C2N)c1 (centres undefined) | inactive | 
35 | COc1cc2c(c3oc(-c4ccccc4)cc(=O)c13)C=CC(C)(C)O2 | inactive | 
36 | O=C(O)CCc1ccc(-c2ccccc2)n1-c1cccc(O)c1 | inconclusive: 25.1 µM [inhibitor, single point] | 
37 | O=C(COC(=O)c1cc(-c2ccc(F)cc2)nc2ccccc12)NCC1CCCO1 (centres undefined) | inconclusive: 28.2 µM [inhibitor, partial curve] | 
38 | Cc1ccc2nc(N/N=C/c3ccco3)cc(C)c2c1 | inconclusive: 17.8 µM [inhibitor, partial curve] | 
39 | C=CCc1ccccc1OCC(O)CN1CCN(c2ccc(C)cc2)CC1 (centres undefined) | inconclusive: 39.8 µM [inhibitor, single point] | 
40 | c1cncc(CNc2ncncc2-c2ccc3c(c2)OCO3)c1 | inconclusive: 22.4 µM [inhibitor, partial curve] | 
41 | CC1(C)CC(=O)C(C2(O)C(=O)N(Cc3ccccc3)c3ccccc32)CO1 (centres undefined) | inactive | 
42 | CN1CCN(c2cc(-c3ccc(N(C)C)cc3)ncn2)CC1 | inconclusive: 28.2 µM [inhibitor, partial curve] | 
43 | CCOc1ccc(-c2cc(C(=O)NN3CCN(C)CC3)c3cc(Cl)ccc3n2)cc1 | inconclusive: 15.8 µM [inhibitor, partial curve] | 
